# Data taken from PubChem BioAssay AID463173 (ICCB-Longwood Screening Facility, Harvard Medical School, 2010).
# Out of some 52,000 compounds screened, about 1,700 (3.3%) were called active. Rule as the data show it: active = survival mostly below about 52% (no sharp cut-off); inactive = mostly above about 56%. The list shows a part of the results.
# System: Wild type
# Assay: growth inhibition of S. aureus wild type versus tarO mutant, primary screen, teichoic acid synthesis inhibitors, RN4220, OD600 (AID 463173)
# Settings: S. aureus RN4220 wild type/DeltatarO growth, OD600, 18 h, hits give low values, screened at 18.75 µg/mL (by protocol)
row,Compound,survival
1,O=C(CCC1N=C2c3ccccc3N=C(SCC(=O)Nc3ccccc3F)N2C1=O)NCc1ccccc1 (stereo not drawn),inactive: 76%
2,CCN1CCN(C(=O)c2cnn(-c3ccc(F)cc3)c2-n2cccc2)CC1,inactive: 131%
3,Cc1ccc(C2C=C(c3ccc(Cl)cc3)Nc3nc(NS(=O)(=O)c4ccccc4)nn32)cc1 (stereo not drawn),inactive: 75%
4,CCCCN(C)CCNC(=O)c1nn(-c2ccc(OC)c(Cl)c2)c(=O)c2c1c1ccccc1n2C,inactive: 77%
5,Cc1nn(-c2ccccc2)c2sc(C(=O)Nc3ccc(Cl)cc3Cl)cc12,inactive: 72%
6,Cc1cccc(N2CCN(C(c3ccccc3F)c3nnnn3C(C)C)CC2)c1C (stereo not drawn),inactive: 105%
7,OCc1nc2ccccc2n1Cc1ccccc1Cl,inactive: 111%
8,COc1ccc(C(=O)Nc2nnc(SCc3cc(=O)c4cc(C)ccc4[nH]3)s2)cc1OC,inactive: 82%
9,Cc1cccn2c(=O)c(C(=O)N3CCN(c4ccccc4F)CC3)cnc12,inactive: 118%
10,CC(C)Cc1nc2ccc(N)cc2[nH]1,inactive: 124%
11,COc1ccc(CNC(=O)Cn2c(=O)c3cccn3c3cccnc32)cc1,inactive: 114%
12,COc1ccc2c(C)c(CCC(=O)NCCc3ccccc3)c(=O)oc2c1,inactive: 86%
13,COC(=O)C1=C(CS(=O)(=O)c2ccc(C)cc2C)NC(=O)NC1c1ccc(C)cc1 (stereo not drawn),inactive: 81%
14,Cc1ccc(C(=O)CSc2nnc(CSc3nc(C)cc(C)n3)n2C)cc1,inactive: 104%
15,Cc1cc(C)c(S(=O)(=O)NCc2ccc3c(c2)CCN3C(=O)c2ccccc2)c(C)c1,inactive: 128%
16,COC(=O)c1ccc(NC(=O)c2c(NCc3cccc(F)c3)sc3c2CCCC3)cc1,inactive: 68%
17,N#C/C(=C(/O)CCCN1C(=O)c2ccccc2C1=O)c1nc2ccccc2[nH]1,inactive: 107%
18,Cc1cc2c(cc1S(=O)(=O)N(CCN(C)C)Cc1ccccc1)OCC(=O)N2,inactive: 75%
19,Cc1cccc(N2CCN(S(=O)(=O)c3cc(C(=O)Nc4ccc(Oc5ccccc5)cc4)ccc3F)CC2C)c1 (stereo not drawn),inactive: 75%
20,COc1ccc(C(=O)NCCn2cc(SCC(=O)Nc3ccc4c(c3)OCCO4)c3ccccc32)cc1,inactive: 162%

row,Compound,survival
1,COc1ccccc1C(c1c(O)cc(C)n(Cc2ccco2)c1=O)N1CCCCC1 (stereo not drawn),inactive: 77%
2,Cc1ccc(NCC(O)CN)c(Br)c1 (stereo not drawn),inactive: 115%
3,CCC(Oc1ccccc1F)C(=O)Nc1cc(-c2ccccc2)no1 (stereo not drawn),inactive: 66%
4,COc1ccc(S(=O)(=O)N(CC(=O)NCCSc2ccc(C)cc2)c2ccc(C)cc2)cc1,inactive: 125%
5,CCOc1ccccc1NC(=O)CSc1c2c(nc3ccc(Cl)cc13)CCCC2,inactive: 54%
6,CCOc1ccccc1NC(=O)c1nc(S(=O)(=O)Cc2cccc(C)c2)ncc1Cl,inactive: 73%
7,CCc1c(-c2ccccc2)nc2ccccc2c1C(=O)NC(C)c1ccccc1 (stereo not drawn),inactive: 45%
8,CCOC(=O)C1CCCN(S(=O)(=O)c2cc(-c3onc(C)c3C)ccc2OC)C1 (stereo not drawn),inactive: 59%
9,Cc1[nH]c2ccc(C(=O)NCCCN3CCCCC3)cc2c1C,inactive: 119%
10,CC1CCc2onc(C(=O)Nc3ccc(Cl)cc3)c2C1 (stereo not drawn),inactive: 59%
11,COc1ccc(-c2noc(CNC(=O)c3cc(OC)c(OC)c(OC)c3)n2)cc1,inactive: 88%
12,Cc1nc2c(c(C)c1CCC(=O)NCc1ccc(F)cc1)c(=O)n(C)c(=O)n2C,inactive: 77%
13,CCCN(c1ccccc1F)S(=O)(=O)c1ccc2c(c1)C(C)(C)C(=O)N2C,inactive: 71%
14,CC(=O)N1CCC(N(Cc2ccc(C)o2)C(=O)Nc2ccccc2F)CC1,inactive: 85%
15,OCCN1C2=NCCCN2c2ccccc21,inactive: 106%
16,CCOc1ccccc1NC(=O)Cn1nnc(C(=O)NCc2cccs2)c1N,inactive: 79%
17,CCOC(=O)c1cc(OC(=O)c2ccccc2F)n(-c2ccccc2)n1,inactive: 72%
18,COc1ccc(NCc2cc3cc4c(cc3n(CC(=O)Nc3ccc(C)cc3C)c2=O)OCO4)cc1,inactive: 72%
19,CCOc1c(Br)cc(C2C=C(C(=O)O)Nc3ncnn32)cc1OC (stereo not drawn),inactive: 78%
20,CC(=O)N1c2ccccc2C(=O)C1N1CCN(c2ccc(Cl)cc2)CC1 (stereo not drawn),inactive: 74%

row,Compound,survival
1,O=C(NCc1ccccc1)c1cc(Sc2cccc(Cl)c2)nc2ccccc12,inactive: 78%
2,Cc1ccc(-c2nc(S(=O)(=O)c3ccc(F)cc3)c(N3CCN(c4ccccc4)CC3)o2)cc1,inactive: 89%
3,CC(C)C[C@H](N)c1nnc(SCc2ccc(Cl)cc2Cl)o1,inactive: 11%
4,CC1=C(c2ccc(C(C)C)cc2)S(=O)(=O)N=C1N1CCN(c2ccccc2F)CC1,inactive: 90%
5,Cc1ccccc1Nc1nn2c(=O)c3ccc(C(=O)NCC(C)c4ccccc4)cc3nc2s1 (stereo not drawn),inactive: 65%
6,C/C(=N\NC(=O)COc1ccccc1)C1C(=O)c2ccccc2C1=O,inactive: 107%
7,CN1CCN(C(CNC(=O)C(=O)Nc2ccc(Cl)cc2)c2cccnc2)CC1 (stereo not drawn),inactive: 85%
8,Cc1ccc(C)c(N2CCN(C(=O)CCc3nnc4n(C)c(=O)c5ccccc5n34)CC2)c1,inactive: 123%
9,CCOCCCNC(=O)c1c[nH]c2ccc(S(=O)(=O)N(C)c3ccc(Cl)cc3F)cc2c1=O,inactive: 130%
10,NC(=O)c1nc(Nc2ccccc2)sc1NC(=O)c1c(F)cccc1F,inactive: 83%
11,CCOC(=O)c1ccc(NC(=O)c2c(NCc3sccc3C)sc3c2CCC(C)C3)cc1 (stereo not drawn),inactive: 135%
12,CCOC(=O)c1cccnc1SCC(=O)N(CC)c1cccc(C)c1,inactive: 70%
13,COc1ccc(F)cc1S(=O)(=O)NCC(c1ccco1)S(=O)(=O)c1cccs1 (stereo not drawn),inactive: 81%
14,CC(C)(C)c1ccc(OCC(=O)Nc2ccc(C(=O)OC3CCCCC3)cc2)cc1,inactive: 71%
15,CC(C)Cn1nc(NC(=O)c2cccc(Cl)c2)c2cc3ccccc3nc21,inactive: 90%
16,CCCCOc1cccc(C(=O)Nc2sc3c(c2C(=O)OCC)CCCC3)c1,inactive: 72%
17,CCC(c1nnnn1CCOC)N1CCN(c2nc3ccccc3s2)CC1 (stereo not drawn),inactive: 100%
18,Cc1cccc2c(=O)cc(CSc3ccccc3NC(=O)C(C)C)[nH]c12,inactive: 89%
